# From ChEMBL document CHEMBL4888484, “Replenishing the malaria drug discovery pipeline: Screening and hit evaluation of the MMV Hit Generation Library 1 (HGL1) against asexual blood stage Plasmodium falciparum ,using a nano luciferase reporter read-out” (2022)
# The whole screen tested about 150,000 compounds, of which about 540 (0.36%) showed an effect of 50% or more. The list shows a part of the results.
# Test system: Plasmodium falciparum
# Assay: Primary screen in NF54 nanoGlo assay, in single point, at 2uM, 72h; a lower Z score goes with more inhibition
# Assay type: functional, Erythrocyte
# Conditions: timepoint 72 hour
Structure (SMILES),% Inhibition,Z score
CCC(=O)N(CC(=O)N1CCc2sccc2[C@@H]1COc1ccc(Cl)c(C)c1)CC1CC1,9%,-0.86
CC[C@H](C)NC(=O)Cn1c(=O)n(Cc2ccc(F)cc2)c(=O)c2sccc21,-11%,1.38
CC[C@H]1c2ccccc2CN1C(=O)NCc1ccnc(-n2cncn2)c1,10%,-1.22
COCCc1nc([C@@H]2CC[C@H](N)C2)n(-c2ccc(OC(F)(F)F)cc2)n1,14%,-1.81
Cc1ccc(NC(=O)Cn2nc(N3CCCC3)c3ccccc3c2=O)c(C)c1,-3%,0.4
C[C@@H]1CCO[C@@H]1C(=O)Nc1cc(C2CCCC2)[nH]n1,-7%,1.27
COc1ccc(Cl)cc1-c1c(C)nn(-c2nnn[nH]2)c1C,-5%,0.8
Cc1ccc(C)c(C2CCN(C(=O)c3c[nH]nn3)CC2)c1,-1%,0.13
O=C(NCCN1C(=O)COC1=O)c1cccs1,12%,-2.12
O[C@@H](CN1CCN(Cc2ccccc2F)CC1)C1CC1,-5%,0.97
Brc1cnc(N2CCCN(c3ccncc3)CC2)nc1,22%,-2.55
COCCOCC(=O)N1CCCCCc2ccccc21,-2%,0.26
O=c1cc2c(nn1CN1CCN(c3ccccn3)CC1)CCC2,9%,-1.01
COc1cccc(CNC(=O)Nc2ccncc2C)n1,1%,-0.08
COCC(=O)NC[C@@H]1C[C@H](F)CN1C(=O)c1ccc2c(c1)OCCO2,8%,-1.49
CN1CCC(n2ncc3c2NC(=O)C[C@@H]3c2cc(C#CCO)cs2)CC1,-11%,1.09
O=C(NC[C@H]1CCN1C1CCOCC1)c1cc(F)c2ncccc2c1,-9%,0.96
Cc1cc(C(=O)NCc2nccc(N)n2)sc1C,-10%,1.73
COCC1(NC(=O)Cc2ccc3[nH]c(C)nc3c2)CCCC1,-6%,1.06
COc1cc(N2CCC(C(=O)O)(n3cnc4ccccc43)CC2)ncn1,-6%,0.75
CO[C@H](CNc1ccccc1CS(C)(=O)=O)Cc1ccccc1,-10%,1.34
COc1ccc(NC(=O)C2(N(Cc3ccco3)C(=O)CC3C(c4c(C)[nH]c5ccccc45)C3(C)C)CCN(C)CC2)cc1 (stereo unspecified),-35%,4.14
O=C(NCCN1CCCCC1)[C@@]1(CCO)CCN(c2ncccn2)C1,-11%,2.15
